# Test results published in the antibiotic and cytotoxicity screens of Wong et al. (2023).
# The list shows a part of the results.
# Test system: HSkMC (human skeletal muscle cells)
# Assay: cytotoxicity call (relative viability < 0.9)
# Settings: 10 µM
row,Structure (SMILES),cytotoxicity call
1,CC(C)c1c(O)c(-c2cc3c(c(C(C)C)c2O)CCC2C(C)(C)CCCC32C)cc2c1CCC1C(C)(C)CCCC21C (stereo unspecified),inactive
2,C[C@H](CO)N1C[C@H](C)[C@H](CN(C)Cc2ccc(Cl)c(Cl)c2)OCCCC[C@H](C)Oc2ccc(NS(C)(=O)=O)cc2C1=O,inactive
3,C[C@@H]1CN([C@H](C)CO)C(=O)c2cccc(NC(=O)Nc3cccc4ccccc34)c2O[C@@H]1CN(C)Cc1ccccc1,inactive
4,O=c1ccc(=O)n(-c2ccccc2)[nH]1,inactive
5,C[C@H]1CN([C@@H](C)CO)C(=O)c2cc(C#Cc3cccc(F)c3)cnc2O[C@H]1CN(C)CC1CCOCC1,inactive
6,COc1ccc(S(=O)(=O)N(C)C[C@H]2Oc3ccc(NC(=O)NC(C)C)cc3C(=O)N([C@H](C)CO)C[C@H]2C)cc1,inactive
7,C[C@@H]1CN([C@@H](C)CO)C(=O)c2cccc(NS(=O)(=O)c3cn(C)cn3)c2O[C@H]1CN(C)Cc1ccc(C(=O)O)cc1,inactive
8,C[C@H]1CN([C@@H](C)CO)C(=O)c2cc(NS(=O)(=O)c3ccccc3)ccc2O[C@@H]1CN(C)S(=O)(=O)c1cn(C)cn1,inactive
9,CCCN1CCC2(CC1)NC(=O)N(CC(=O)N1CCN(C(=O)OCC)CC1)C2=O,inactive
10,C/C(=C/C(=O)N1CCN(C)CC1)C(=O)O,inactive
11,CC(C)N1C[C@H](C)[C@@H](CN(C)Cc2ccc(Oc3ccccc3)cc2)Oc2c(NC(=O)C3CCNCC3)cccc2C1=O,active

# Test system: HepG2
# Assay: cytotoxicity call (relative viability < 0.9)
# Settings: 10 µM
row,Structure (SMILES),cytotoxicity call
1,C[C@@H]1CN([C@@H](C)CO)S(=O)(=O)c2ccc(Br)cc2O[C@@H]1CN(C)C(=O)c1ccccn1,inactive
2,CCC(=O)N(C)C[C@H]1Oc2ncc(C#C[C@H](C)O)cc2C(=O)N([C@H](C)CO)C[C@H]1C,inactive
3,COc1ccc(CN(C)C[C@H]2Oc3ccc(NC(=O)CCCCCC(=O)Nc4ccccc4N)cc3CC(=O)N([C@@H](C)CO)C[C@H]2C)cc1,active
4,Cc1noc(C)c1NC(=O)N(C)C[C@H]1OCCCC[C@H](C)Oc2ccc(NC(=O)Cc3ccccc3)cc2C(=O)N([C@H](C)CO)C[C@@H]1C,inactive
5,C[C@@H]1CN([C@H](C)CO)C(=O)c2cc(C#CC3CCCCC3)cnc2O[C@H]1CN(C)C(=O)Cc1ccccn1,inactive
6,C[C@@H]1CN([C@@H](C)CO)C(=O)c2cc(N(C)C)ccc2O[C@@H](C)CCCCO[C@@H]1CN(C)C(=O)Nc1cccc2ccccc12,inactive
7,C[C@@H]1CN([C@H](C)CO)C(=O)c2cc(NS(=O)(=O)c3ccc(Cl)cc3)ccc2O[C@H]1CN(C)S(C)(=O)=O,inactive
8,C[C@@H]1CN([C@H](C)CO)C(=O)c2cc(NC(=O)Cn3cnnn3)ccc2O[C@@H]1CN(C)S(=O)(=O)c1ccc(F)cc1,inactive
9,NC(=O)CSc1nc(N)cc(N)n1,inactive
10,Cc1cc(C)c(S(=O)(=O)Nc2cc([C@@H](C(=O)OC(C)C)C(=O)C(F)(F)F)c(O)c3ccccc23)c(C)c1,inactive
11,C[C@H](CO)N1C[C@H](C)[C@H](CN(C)S(C)(=O)=O)OCCCC[C@H](C)Oc2ccc(NC(=O)Nc3cccc4ccccc34)cc2C1=O,inactive
12,C[C@@H]1CN([C@H](C)CO)C(=O)c2cc(NC(=O)Nc3ccccc3)ccc2O[C@@H](C)CCCCO[C@@H]1CN(C)C(=O)CCC(F)(F)F,inactive
13,COC(=O)Cn1c(=O)c2c(OC)c(C)cnc2n(C)c1=O,inactive
14,O=C(NCCO[N+](=O)[O-])c1cccnc1,inactive
15,C[C@@H]1CCCCO[C@@H](CN(C)S(=O)(=O)c2cn(C)cn2)[C@H](C)CN([C@H](C)CO)C(=O)c2cc(NC(=O)Nc3ccc(C(F)(F)F)cc3)ccc2O1,inactive
16,C[C@@H]1CN([C@H](C)CO)C(=O)CCCn2nncc2CO[C@H]1CN(C)C(=O)Nc1ccccc1C(F)(F)F,active
17,COc1ccc(CN(C)C[C@@H]2OCCCC[C@@H](C)Oc3ccc(NC(=O)c4ccccc4)cc3C(=O)N([C@@H](C)CO)C[C@H]2C)cc1,inactive
18,C[C@H](CO)N1C[C@H](C)[C@H](CN(C)C(=O)Nc2ccc3c(c2)OCO3)OCCCC[C@H](C)Oc2ccc(NC(=O)CCCCCC(=O)Nc3ccccc3N)cc2C1=O,inactive
19,Cc1[nH]c(=O)[nH]c(=O)c1S(=O)(=O)N1CCC(C(=O)NCCC(C)C)CC1,inactive
20,C[C@@H]1CN([C@H](C)CO)C(=O)c2cccc(NC(=O)c3nc4ccccc4s3)c2O[C@H]1CN(C)S(C)(=O)=O,inactive

row,Structure (SMILES),cytotoxicity call
1,C[C@H](CO)N1C[C@H](C)[C@@H](CN(C)S(=O)(=O)c2cn(C)cn2)Oc2ccc(NC(=O)C3CC3)cc2C1=O,inactive
2,C[C@@H]1CN([C@H](C)CO)C(=O)Cc2cc(NS(C)(=O)=O)ccc2O[C@@H]1CN(C)Cc1ccc2c(c1)OCO2,inactive
3,C[C@@H]1CCCCO[C@@H](CN(C)C(=O)c2ccccc2)[C@@H](C)CN([C@H](C)CO)C(=O)c2cc(NC(=O)Cc3ccccc3)ccc2O1,inactive
4,Cc1noc(C)c1NC(=O)N(C)C[C@@H]1Oc2ccc(NC(=O)CCN3CCOCC3)cc2CC(=O)N([C@@H](C)CO)C[C@@H]1C,inactive
5,C[C@H](CO)N1C[C@H](C)[C@@H](CN(C)S(=O)(=O)c2ccccc2)Oc2cc(Br)ccc2S1(=O)=O,inactive
6,Cc1ccc(S(=O)(=O)Nc2ccc3c(c2)C(=O)N([C@H](C)CO)C[C@H](C)[C@H](CN(C)Cc2ccc(C(F)(F)F)cc2)O3)cc1,active
7,C[C@@H]1CCCCO[C@@H](CN(C)Cc2ccc(C(=O)Nc3ccccc3N)cc2)[C@@H](C)CN([C@H](C)CO)C(=O)c2cc(NC(=O)C3CCCCC3)ccc2O1,inactive
8,COc1ccc(S(=O)(=O)Nc2ccc3c(c2)C(=O)N([C@@H](C)CO)C[C@@H](C)[C@@H](CN(C)Cc2ccc4c(c2)OCO4)OCCCC[C@H](C)O3)cc1,inactive
9,Cc1noc(C)c1S(=O)(=O)N(C)C[C@@H]1Oc2ccc(NS(=O)(=O)c3ccccc3)cc2CC(=O)N([C@H](C)CO)C[C@H]1C,inactive
10,CC(C)c1c(O)c(-c2cc3c(c(C(C)C)c2O)CCC2C(C)(C)CCCC32C)cc2c1CCC1C(C)(C)CCCC21C (stereo unspecified),inactive
11,C[C@H](CO)N1C[C@H](C)[C@H](CN(C)Cc2ccc(Cl)c(Cl)c2)OCCCC[C@H](C)Oc2ccc(NS(C)(=O)=O)cc2C1=O,inactive
12,C[C@@H]1CN([C@H](C)CO)C(=O)c2cccc(NC(=O)Nc3cccc4ccccc34)c2O[C@@H]1CN(C)Cc1ccccc1,inactive
13,O=c1ccc(=O)n(-c2ccccc2)[nH]1,inactive
14,C[C@H]1CN([C@@H](C)CO)C(=O)c2cc(C#Cc3cccc(F)c3)cnc2O[C@H]1CN(C)CC1CCOCC1,inactive
15,COc1ccc(S(=O)(=O)N(C)C[C@H]2Oc3ccc(NC(=O)NC(C)C)cc3C(=O)N([C@H](C)CO)C[C@H]2C)cc1,inactive
16,C[C@@H]1CN([C@@H](C)CO)C(=O)c2cccc(NS(=O)(=O)c3cn(C)cn3)c2O[C@H]1CN(C)Cc1ccc(C(=O)O)cc1,inactive
17,C[C@H]1CN([C@@H](C)CO)C(=O)c2cc(NS(=O)(=O)c3ccccc3)ccc2O[C@@H]1CN(C)S(=O)(=O)c1cn(C)cn1,inactive
18,CCCN1CCC2(CC1)NC(=O)N(CC(=O)N1CCN(C(=O)OCC)CC1)C2=O,inactive
19,C/C(=C/C(=O)N1CCN(C)CC1)C(=O)O,inactive
20,CC(C)N1C[C@H](C)[C@@H](CN(C)Cc2ccc(Oc3ccccc3)cc2)Oc2c(NC(=O)C3CCNCC3)cccc2C1=O,active
